In PMC7819943, “Rice protein-binding microarrays: a tool to detect cis-acting elements near promoter regions in rice”:
This is one part of the list.

target: T1, OsWOX13 (Oryza sativa, UniProt Q5QMM3 1-267); test: protein-binding microarray (RPBM); PBS, 2% BSA, 51.3 ng/ul salmon testes DNA, 50 uM zinc acetate, 200 nM TF, 25 C, 1 h; high values mean tight binding; conditions: protein: recombinant; tags: N-terminal polyhistidine and DsRed monomer fusion (pET32a); label: CyDye5-dUTP incorporated in the synthesized complementary strand; 3' TTTTT single-stranded linker to array surface; dsDNA, one strand shown
T1 sequence: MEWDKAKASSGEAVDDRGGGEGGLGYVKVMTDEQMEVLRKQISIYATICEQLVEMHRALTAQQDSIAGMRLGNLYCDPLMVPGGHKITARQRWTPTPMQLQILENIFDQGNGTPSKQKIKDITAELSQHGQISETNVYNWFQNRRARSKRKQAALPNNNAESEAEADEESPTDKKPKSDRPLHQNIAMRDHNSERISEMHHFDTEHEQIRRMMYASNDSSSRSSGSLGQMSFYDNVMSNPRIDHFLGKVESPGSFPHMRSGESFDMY
In short: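 Transcription factors were each fused at the N-terminus to a polyhistidine tag plus DsRed and expressed in E. coli BL21-CodonPlus before Ni–NTA purification. Binding to a double-stranded custom Agilent array was carried out with 200 nM protein at 25 °C for 1 h in PBS, 2% BSA, salmon testes DNA and 50 µM zinc acetate. The binding signal is per-feature fluorescence intensity, in arbitrary units, on an Axon 4000B scanner.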

For “AATTGTCAATCTTGATCAAATAGAAAATATAAGATGATGACGGAGTCACCTAGTGCAG”, which binding signal is on record?
The binding signal was 7200 fluorescence intensity (a.u.).

Which binding signal does the source give for “TGGTGAATGGGAAATTGACAAACGACTGCTGAAGATGGGACGGAGTCACCTAGTGCAG” here?
Its binding signal is 26500 fluorescence intensity (a.u.).

Which binding signal does the source give for “TCGATGTACCAATCTATCTGTCCATCTAGGTCTCTAAGGACGGAGTCACCTAGTGCAG” here?
The binding signal was 6620 fluorescence intensity (a.u.).

“TTAACTTGATTTTATAAGTTGGAGGTTCAAGATTTCAGTTCGGAGTCACCTAGTGCAG” was tested. Which binding signal did it give?
The binding signal was 7760 fluorescence intensity (a.u.).

Which binding signal does the source give for “GACGGAGTTGATTTAATCAGTAGTAAGAGGTTGGAGGAGGCGGAGTCACCTAGTGCAG” here?
Its binding signal is 5050 fluorescence intensity (a.u.).

“AGCTCGTGATTAGCAGATTGCATTTAGTGGGTGGGCTGTCCGGAGTCACCTAGTGCAG” was tested. Which binding signal did it give?
The binding signal was 46200 fluorescence intensity (a.u.).

“TAATTTAGATTACATATAAAACAAACAGGCCTAACTTGCCCGGAGTCACCTAGTGCAG” was tested. Which binding signal did it give?
Its binding signal is 7840 fluorescence intensity (a.u.).

With “CAAATAATTAACCACATTGCCAATCTGCATTTGCGAAATGCGGAGTCACCTAGTGCAG” as the sequence, how does the binding signal read?
The binding signal was 30100 fluorescence intensity (a.u.).

Which binding signal does the source give for “AATTATAATAAATGAAATTGCACAAAGGATTATAGTAATCCGGAGTCACCTAGTGCAG” here?
The binding signal was 3880 fluorescence intensity (a.u.).

With “AGTTAATTTGTACCAAACTCTTAAGCATGGAGGATTTGACCGGAGTCACCTAGTGCAG” as the sequence, how does the binding signal read?
Its binding signal is 23400 fluorescence intensity (a.u.).

With “ATTGTGAATTGATGGATCCTCATATTCTTACTATTTTGTTCGGAGTCACCTAGTGCAG” as the sequence, how does the binding signal read?
The binding signal was 22500 fluorescence intensity (a.u.).

How did the binding signal turn out when “AGTTATGCTTGATAATTGATATCCACAGCCACAAAATAAACGGAGTCACCTAGTGCAG” was run?
Its binding signal is 7250 fluorescence intensity (a.u.).

Which binding signal does the source give for “CAAGATTAAGATTAAACCAGGAGAGACCACCCGATCGAGTCGGAGTCACCTAGTGCAG” here?
The binding signal was 5280 fluorescence intensity (a.u.).

Which binding signal does the source give for “AATTATAATCACTTCTCTGTCGAGATCCCCTCCAACATACCGGAGTCACCTAGTGCAG” here?
The binding signal was 3330 fluorescence intensity (a.u.).

With “ATTTGATTGCACAGAACTGATTGTTGTGCAGACATTACCTCGGAGTCACCTAGTGCAG” as the sequence, how does the binding signal read?
The binding signal was 37500 fluorescence intensity (a.u.).

“GCAGTGATTAATGGAACAGAAGTCATCCATCCATCCACTGCGGAGTCACCTAGTGCAG” was tested. Which binding signal did it give?
Its binding signal is 48600 fluorescence intensity (a.u.).

“CTGAAATTATTTTACTGCACCTGGTAACCACGCACAGTAACGGAGTCACCTAGTGCAG” was tested. Which binding signal did it give?
The binding signal was 3200 fluorescence intensity (a.u.).

How did the binding signal turn out when “CCCTTACTGATTGGACGGTCCCGCGCATAAGCATGCGCACCGGAGTCACCTAGTGCAG” was run?
The binding signal was 27800 fluorescence intensity (a.u.).

For “TTTGATGGGCAAAGATTTATGACTCGTGGGCTCATACCAGCGGAGTCACCTAGTGCAG”, which binding signal is on record?
Its binding signal is 19900 fluorescence intensity (a.u.).

With “GAATCAGATTGGACATATAATCGAGGGAGTCCAACCAGACCGGAGTCACCTAGTGCAG” as the sequence, how does the binding signal read?
The binding signal was 12500 fluorescence intensity (a.u.).

For “TGGAATTGACTTGTTACTAAAATAAATAAATGATCAATAGCGGAGTCACCTAGTGCAG”, which binding signal is on record?
The binding signal was 11400 fluorescence intensity (a.u.).

With “CTTAATTAATCATACGCTAATAAGTCACTCCGTTTTACGTCGGAGTCACCTAGTGCAG” as the sequence, how does the binding signal read?
The binding signal was 26000 fluorescence intensity (a.u.).

For “ACTTAATTGCAAAGCAAAGTAACGGATGAGATGCACTAATCGGAGTCACCTAGTGCAG”, which binding signal is on record?
The binding signal was 24700 fluorescence intensity (a.u.).

Which binding signal does the source give for “CCTCCCATTAACTATTAACTCTTTTCGTAACCCTTTCAGCCGGAGTCACCTAGTGCAG” here?
The binding signal was 3150 fluorescence intensity (a.u.).

For “TTAAATTTTGAACTTTGATCAGACATATTACAAGAGGTGGCGGAGTCACCTAGTGCAG”, which binding signal is on record?
The binding signal was 10200 fluorescence intensity (a.u.).

Which binding signal does the source give for “ACCTAAATTAGTAGAACGAATCTTTCCTTTTCTCTCTTTTCGGAGTCACCTAGTGCAG” here?
Its binding signal is 15700 fluorescence intensity (a.u.).

How did the binding signal turn out when “TCTTGTTTTCAATTTGATTGCATTTGAATGGCTTCAATGGCGGAGTCACCTAGTGCAG” was run?
The binding signal was 11500 fluorescence intensity (a.u.).

For “GTAACAGACTTGATTAATGTGTACAATATTAAACAGATTGCGGAGTCACCTAGTGCAG”, which binding signal is on record?
The binding signal was 29600 fluorescence intensity (a.u.).

How did the binding signal turn out when “CCCACCGTTTATTAATTAGAAAATGTATTAATAAATGGCCCGGAGTCACCTAGTGCAG” was run?
The binding signal was 14600 fluorescence intensity (a.u.).

With “TTTGATTTTAGGTCAATGCTCGAAGCAATTTCTCCTCCTCCGGAGTCACCTAGTGCAG” as the sequence, how does the binding signal read?
Its binding signal is 13300 fluorescence intensity (a.u.).

“AATTGATGTGGTCAATCCAGGCTTCCAGCCGATTGGTGGACGGAGTCACCTAGTGCAG” was tested. Which binding signal did it give?
Its binding signal is 4010 fluorescence intensity (a.u.).

With “CCAAAATTGTACTGGGAACATGATTATTATAGCAGGCTCTCGGAGTCACCTAGTGCAG” as the sequence, how does the binding signal read?
Its binding signal is 7300 fluorescence intensity (a.u.).

Which binding signal does the source give for “CCTAATTATATGGACCTGATCCACACCGTACAAGCATATTCGGAGTCACCTAGTGCAG” here?
The binding signal was 23400 fluorescence intensity (a.u.).

With “GGATGATGATTTGGGCTGAACGCTACATGTCCAAAGAAGCCGGAGTCACCTAGTGCAG” as the sequence, how does the binding signal read?
Its binding signal is 12100 fluorescence intensity (a.u.).

Which binding signal does the source give for “CGTGGACATCACAATTATTGAATTTGGAGAACAAATTGGTCGGAGTCACCTAGTGCAG” here?
Its binding signal is 8910 fluorescence intensity (a.u.).

With “GATAATTTGCCATTCTTTAGGGCCCGGTTCTTTTCTCCTTCGGAGTCACCTAGTGCAG” as the sequence, how does the binding signal read?
Its binding signal is 14800 fluorescence intensity (a.u.).

For “ATGGTTTATTGATAATTATGTGAAGTTTAGTTCTAGCCGACGGAGTCACCTAGTGCAG”, which binding signal is on record?
The binding signal was 13500 fluorescence intensity (a.u.).

Which binding signal does the source give for “AAATAAATAATCAACTGGACTGCCGCTTATTACGGACCATCGGAGTCACCTAGTGCAG” here?
Its binding signal is 4150 fluorescence intensity (a.u.).

Which binding signal does the source give for “CGGATCCCATTCAATCATTCATTCATGTCGGATTGATGCCCGGAGTCACCTAGTGCAG” here?
The binding signal was 11800 fluorescence intensity (a.u.).

For “TTAAACCATTGTAATTTAATATATAAACTTCAAATCTATCCGGAGTCACCTAGTGCAG”, which binding signal is on record?
The binding signal was 3550 fluorescence intensity (a.u.).

With “CTTAATTTGCAGCGCTAATAAGCTCTAGCTTTCTCTTCTTCGGAGTCACCTAGTGCAG” as the sequence, how does the binding signal read?
Its binding signal is 14300 fluorescence intensity (a.u.).

Which binding signal does the source give for “CAATCACTAATCACCTCACTTAAATTATGCTTAGCCGTTTCGGAGTCACCTAGTGCAG” here?
The binding signal was 18400 fluorescence intensity (a.u.).
